# “And” between values parts separate entries of the source, which are not always exact repeats. Equal entries are not always repeated. The list shows a part of the results. Shown are side measurements of this screen, not its main read-out; they come without a call.
# How the values were obtained:
# Experiment in all cases: Primary Screen for Target Class Profiling of Small Molecule Inhibitors of Methyltransferases
# [1] = molecular target: Glycine N-methyltransferase (Homo sapiens) (UniProt Q14749); conditions: purified enzyme, MTase-Glo SAH luminescence; measured here: GNMT inhibition; at 40 µM; stronger effect = lower value
# How it was run: (§1)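 Each enzyme was reacted with SAM and its substrate, with compounds tested once at 40 uM; SAH formed was read by MTase-Glo luminescence.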
# [2] = molecular target: Guanidinoacetate N-methyltransferase (Homo sapiens) (UniProt Q14353); conditions: purified enzyme, MTase-Glo SAH luminescence; measured here: GAMT inhibition; at 40 µM; stronger effect = lower value
# How it was run: as §1
# [3] = molecular target: Histamine N-methyltransferase (Homo sapiens) (UniProt P50135); conditions: purified enzyme, MTase-Glo SAH luminescence; measured here: HNMT inhibition; at 40 µM; stronger effect = lower value
# How it was run: as §1
# [4] = molecular target: Nicotinamide N-methyltransferase (Homo sapiens) (UniProt P40261); conditions: purified enzyme, MTase-Glo SAH luminescence; measured here: NNMT inhibition; at 40 µM; stronger effect = lower value
# How it was run: as §1
# [5] = molecular target: Phenylethanolamine N-methyltransferase (Homo sapiens) (UniProt P11086); conditions: purified enzyme, MTase-Glo SAH luminescence; measured here: PNMT inhibition; at 40 µM; stronger effect = lower value
# How it was run: as §1
# % is set by controls: 0 for no effect and ±100 for the full control effect.
SMILES,"activity change, negative = inhibition [1]","activity change, negative = inhibition [2]","activity change, negative = inhibition [3]","activity change, negative = inhibition [4]","activity change, negative = inhibition [5]"
Cc1ccc(C(=O)COC(=O)C(Cc2c[nH]c3ccccc23)NC(=O)c2ccc(C(C)(C)C)cc2)cc1 (stereo not given),-1.65%,1.14%,-6.23%,-6.35%,-7.82%
CC[C@]1(O)C[C@@H]2CN(CCc3c([nH]c4ccccc34)[C@@](C(=O)OC)(c3cc4c(cc3OC)N(C)[C@H]3[C@@](O)(C(=O)OC)[C@H](OC(C)=O)[C@]5(CC)C=CCN6CC[C@]43[C@@H]65)C2)C1,-7.66%,–,7.22%,–,–
COc1ccc(NC(=O)Cn2nc3n(CCC(C)C)c(=O)c4ccccc4n3c2=O)cc1,1.24%,2.92%,-0.21%,-4.8%,1.28%
CS(=O)(=O)N(Cc1cccnc1)C1CN(C(=O)CCc2c[nH]c3ccccc23)C1,-6.36%,0.132%,0.788%,-1.76%,2.27%
O=C(c1nc2ccccc2n(C2CCCC2)c1=O)N1CCCC1,-4.29%,-10.7%,-0.765%,-23.6%,-12%
CCN1CCN(C(=O)C2CCc3nnc(-c4cccc(C(F)(F)F)c4)n32)CC1 (stereo not given),-1.12%,0.125%,1.02%,-2.16%,1.34%
CCCN1C(=O)c2cc(C(=O)NCCCOCC)nn2CC1(C)C(=O)NC1CCCC1 (stereo not given),3.89%,0%,5.24%,1.75%,1.55%
Cc1ccc2nc(CO[C@H]3CN(C4CCN(C)CC4)C[C@H]3F)[nH]c2c1,-2.52%,0.892%,-18.5%,-9%,8.77%
COc1ccccc1CNC(=O)C[C@@H]1c2nc(-c3cccnc3)sc2C[C@@H]2[C@](C)(CO)[C@H](O)CC[C@]21C,-8.08%,-3.38%,-7.27%,-0.849%,-1.29%
COc1cccc(CN2CCCCC2c2nc(CCOCC3CCOCC3)no2)c1 (stereo not given),-0.865%,-3.39%,-0.476%,1.13%,3.51%
CCCN1CCC(N2CCCC(Cc3ccccc3)(C(=O)OCC)C2)CC1 (stereo not given),-1.48%,-1.8%,-2.88%,-8.33%,2.36%
COCCNc1cc(-c2ccc3ccccc3n2)c2cc[nH]c2n1,-23.1%,-13.8%,-19.3%,-16.3%,-40.4%
COC(=O)c1ncn2c1C(=O)N(Cc1ccccc1F)C(C)(C(=O)NC1CCCCCC1)C2 (stereo not given),6.11%,1.58%,5.28%,4.5%,3.27%
Cc1cc(CS(=O)(=O)c2ccccc2)cc(OCc2ccc(CN3CCC[C@@H]3CO)cc2)c1,-9.77%,-1.21%,-41.7%,-28.2%,-25.4%
CCCS(=O)(=O)Nc1ccc([C@H]2OCC(=O)N(CC(=O)N(C)C)[C@@H]2CO)cc1,-0.08%,-5.74%,1.05%,-7.59%,-2.04%
COc1ccc2[nH]c(C[C@@H]3C[C@@H](C(C)C)[C@H](CNC(=O)c4cccnc4)C=C3C)nc2n1,-14.6%,-7.36%,-27.3%,-35.3%,-15.3%
CNC(=O)[C@@H]1CN(C(=O)Cc2cc(C)no2)C[C@H]1COC,45%,0.801%,2.31%,-1.27%,0.722%
CSc1ccc(CCNC(=O)CCn2ccc3cc(S(=O)(=O)N4CCCCC4)ccc32)cc1,0.726%,2.5%,-1.87%,-5.77%,-0.75%
CN(CC(=O)NC1CCCC1)S(=O)(=O)c1ccc2[nH]c3c(c2c1)CCCC3,-1.15%,0%,5.83%,0.755%,4.19%
Cc1nc(CN2CCOc3cc([S+](=O)([O-])Nc4ccccc4)ccc3C2)cs1,-5.99%,-8.94%,-3.76%,-14%,-8.01%

SMILES,"activity change, negative = inhibition [1]","activity change, negative = inhibition [2]","activity change, negative = inhibition [3]","activity change, negative = inhibition [4]","activity change, negative = inhibition [5]"
CSCC1OC(n2cnc3c(N)ncnc32)C(O)C1O (stereo not given),-8.48%,-20.8%,-6.73%,-24.7%,-25.5%
CCCn1c(=O)c2ccccc2n2c(=O)n(CC(=O)c3cccc(OC)c3)nc12,-5.61%,0.9%,-0.543%,-12.7%,-4.11%
CCNC(=O)C1CC(F)(c2ccc(CN3CCCC3)c(F)c2)C1 (stereo not given),-4.68%,-6.1%,5.79%,-17.6%,0.779%
CCCCC#Cc1nc(NC)c2ncn([C@@H]3O[C@H](CO)[C@@H](O)[C@H]3O)c2n1,-19.5%,10.1%,1.68%,-5.57%,3.28%
CCn1cc(CN(C)Cc2ccccc2)ccc1=O,-7.36%,-2.51%,-1.46%,-4.63%,-11.3%
Cc1noc(C)c1CN[C@@H]1CCC[C@@H](C(=O)N2CCN(C)CC2)CC(=O)N(C)C1,-2.83%,-8.88%,-4.48%,-13.5%,-8.71%
CCCCNc1nc2c(S(=O)(=O)c3cc(C)ccc3C)nnn2c2ccccc12,-2.99%,0%,4.69%,-1.33%,-1.82%
O=C(Cc1cccnc1)N1CCC2(CC1)CC(CCOc1ccc(F)cc1)CCO2 (stereo not given),-1.86%,0.262%,0.438%,-3.33%,4.55%
CC1(C)CCC[C@]2(C)C1CC=C(CO)[C@H]2CC/C(=C/CO)CO (stereo not given in full),3.72%,7.17%,7.63%,-10.1%,4.04%
CC(=O)NCC1CN(c2ccc(-c3ccc(CNCc4cn[nH]n4)cc3)c(F)c2)C(=O)O1 (stereo not given),-2%,4.05%,12%,-9.93%,3.42%
Cc1ccc(CN2CCn3c(nnc3[C@@H]3C[C@@H](O)CN3Cc3cccnc3)C2)s1,-9.09%,-14.8%,-5.45%,-9.69%,-3.64%
Cc1cccc(CN2C(=O)c3ccccc3CC2(C)C(=O)NCc2ccccc2C)c1 (stereo not given),11.8%,0%,12%,-0.369%,5.55%
Cc1ccccc1CCN1C(=O)c2ccc(-c3ccco3)n2CC1(C)C(=O)NC1CCCCC1 (stereo not given),-9.47%,0.606%,-4.46%,-10.2%,-1.47%
O=P(O)(O)C(O)(Cc1cccnc1)P(=O)(O)O,-0.344% and 4.61%,4.35% and -11.3%,10.1% and -3.23%,-9.89% and -18.6%,5.44% and -13.2%
COc1ccccc1CCNC(=O)c1cc2n(n1)CC(C)(C(=O)NCCC(C)C)N(C)C2=O (stereo not given),5.61%,1.44%,3.66%,6.11%,2.98%
CCCn1c(=O)c2cc(Cl)ccc2n2c(=O)n(CC(=O)Nc3cc(OC)cc(OC)c3)nc12,1.12%,3.64%,10.2%,1.32%,1.66%
CCOc1nc2c(N)ncnc2n1CC,-7.26%,-7.8%,6.7%,-28.8%,-2.56%
CCN1/C(=C/C(C)=O)Sc2ccc(OC(C)=O)cc21,–,2.45%,–,-22.9%,1.79%
CC/C=C\CC1C(=O)C=CC1(CCCCC1CCC(=O)O1)OC(C)=O (stereo not given),0%,-2.54%,0.814%,-17.1%,0.457%
